The values below come from paper PMC4336329 (PLoS ONE, 2015).

The campaign covered roughly 310,000 compounds. About 2,200 (0.71%) showed an effect of 50% or more. Effects have a minus sign here. Some of the results follow.

Chain of human ether-à-go-go-related gene (hERG) potassium channel (Q12809 whole entry, looked up): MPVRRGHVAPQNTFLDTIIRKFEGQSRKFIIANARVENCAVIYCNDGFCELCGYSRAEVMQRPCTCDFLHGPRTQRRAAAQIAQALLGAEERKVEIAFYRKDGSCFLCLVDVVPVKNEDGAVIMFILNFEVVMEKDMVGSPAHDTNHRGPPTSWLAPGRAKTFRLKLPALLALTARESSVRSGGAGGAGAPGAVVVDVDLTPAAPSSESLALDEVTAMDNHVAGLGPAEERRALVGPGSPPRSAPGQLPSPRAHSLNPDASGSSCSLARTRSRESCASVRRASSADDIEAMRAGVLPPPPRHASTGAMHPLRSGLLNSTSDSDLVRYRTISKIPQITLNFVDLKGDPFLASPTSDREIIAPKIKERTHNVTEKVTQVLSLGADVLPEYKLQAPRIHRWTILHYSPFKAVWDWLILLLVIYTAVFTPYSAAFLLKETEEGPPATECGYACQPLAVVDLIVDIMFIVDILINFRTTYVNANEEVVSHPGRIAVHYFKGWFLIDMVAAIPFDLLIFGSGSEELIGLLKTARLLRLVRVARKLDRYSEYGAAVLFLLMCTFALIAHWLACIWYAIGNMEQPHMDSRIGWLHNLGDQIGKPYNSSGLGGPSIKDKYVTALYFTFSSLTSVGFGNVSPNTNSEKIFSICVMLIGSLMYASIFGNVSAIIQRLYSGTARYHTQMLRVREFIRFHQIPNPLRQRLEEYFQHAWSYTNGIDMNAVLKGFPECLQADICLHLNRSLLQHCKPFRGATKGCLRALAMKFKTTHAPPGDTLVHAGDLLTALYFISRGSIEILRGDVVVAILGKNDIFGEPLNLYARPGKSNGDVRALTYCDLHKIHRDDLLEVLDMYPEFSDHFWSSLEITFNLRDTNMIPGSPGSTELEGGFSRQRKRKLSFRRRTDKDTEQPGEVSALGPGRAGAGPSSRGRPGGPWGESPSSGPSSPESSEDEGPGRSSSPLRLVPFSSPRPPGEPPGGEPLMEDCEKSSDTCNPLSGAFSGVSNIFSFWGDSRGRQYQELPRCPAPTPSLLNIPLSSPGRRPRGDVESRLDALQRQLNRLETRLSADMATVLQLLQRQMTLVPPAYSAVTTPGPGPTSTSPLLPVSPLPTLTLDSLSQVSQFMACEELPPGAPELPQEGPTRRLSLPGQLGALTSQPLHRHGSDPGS

This test concerns the target human ether-à-go-go-related gene (hERG) potassium channel (human, UniProt Q12809). The test can be described thus: primary screen, population patch clamp on CHO cells stably expressing hERG.
In the case of `Cc1nc([N+](=O)[O-])c(Sc2nc3ccc([N+](=O)[O-])cc3[nH]2)n1Cc1ccccc1`, the “hERG current change (%, negative = inhibition) at 1uM” value was -18.1%.

For `O=C1c2ccccc2C(=O)N1CCOc1cccc(Br)c1`, the “hERG current change (%, negative = inhibition) at 1uM” value is on record as 14%.

For the compound `COc1cc(C(=O)Nc2c(C)cc(C)cc2C)c(-n2cnnn2)cc1OC`, the “hERG current change (%, negative = inhibition) at 1uM” value is listed as 2.15%.

Consider `CCCC(C(=O)Nc1cc(S(=O)(=O)N2CCOCC2)ccc1OC)c1ccccc1` (stereo not shown), for which the “hERG current change (%, negative = inhibition) at 1uM” value is 9.49%.

Consider `Cc1[nH]c(C)c(S(=O)(=O)N2CCCCC2)c1C(=O)N1CCCC1`, for which the “hERG current change (%, negative = inhibition) at 1uM” value was determined as 6.23%.

Consider `COc1cccc(CN2CCNC(=O)C2CC(=O)NC2Cc3ccccc3C2)c1` (stereo not shown), for which the “hERG current change (%, negative = inhibition) at 1uM” value is on record as 4.88%.

`CCc1ccc(CN(C(=O)c2cccs2)C2CCS(=O)(=O)C2)cc1` (stereo not shown): the “hERG current change (%, negative = inhibition) at 1uM” value is listed as -13.4%.

As for `COc1ccc(F)cc1C(=O)C1CCCN(C(=O)CCN2CCCCO2)C1` (stereo not shown), the “hERG current change (%, negative = inhibition) at 1uM” value is recorded as 19.4%.

Turning to `Cc1ccccc1NC(=O)c1ccc(CN2CCc3ccccc3C2)cc1`, the “hERG current change (%, negative = inhibition) at 1uM” value is given as -9.22%.

On to `CC1CCc2[nH]c3ccc(C(=O)N(C)CC(=O)Nc4ccc(F)cc4)cc3c2C1` (stereo not shown), for which the “hERG current change (%, negative = inhibition) at 1uM” value was found to be 2.75%.

With `CCOC(=O)C1CCN(C(=O)Cc2ccc(OC)c(OC)c2)CC1`, the “hERG current change (%, negative = inhibition) at 1uM” value was 7%.

As for `CC(=O)Oc1ccc(C(=O)Nc2cccc(C(=O)NC(C)(C)C)c2)cc1`, the “hERG current change (%, negative = inhibition) at 1uM” value was 14%.

For `CC(C)N1C(=O)NC2(c3ccccc3)N(C)C(=O)N(C)C12c1ccccc1` (stereo not shown), the “hERG current change (%, negative = inhibition) at 1uM” value is reported as 3.38%.

In the case of `O=C(NCCc1ccc(Cl)cc1)c1cc(S(=O)(=O)N2CCCCC2)c[nH]1`, the “hERG current change (%, negative = inhibition) at 1uM” value is reported as 15.8%.

With `O=C(Cc1ccccc1[N+](=O)[O-])NC1CC1`, the “hERG current change (%, negative = inhibition) at 1uM” value came to 10.4%.

In the case of `O=C(OCc1ccccc1)/C(=C/c1ccc(Cl)cc1)NC(=O)c1ccccc1Cl`, the “hERG current change (%, negative = inhibition) at 1uM” value came out at 5.89%.

As for `O=C(NCCc1ccccc1)C1CCN(S(=O)(=O)c2ccc(-c3nn[nH]n3)cc2)CC1`, the “hERG current change (%, negative = inhibition) at 1uM” value is given as -13.3%.

As for `CN1CCN(C(=O)c2ccc(CNS(=O)(=O)c3cccc(Cl)c3)cc2)CC1`, the “hERG current change (%, negative = inhibition) at 1uM” value is on record as -1.64%.

As for `Cc1ccccc1Cn1c(=O)n(CC2CCC(C(=O)NCCc3ccccc3)CC2)c(=O)c2ccccc21` (stereo not shown), the “hERG current change (%, negative = inhibition) at 1uM” value was determined as 11.8%.

Consider `COc1ccc(CNC(=O)C2CSC(=O)C2)cc1` (stereo not shown), for which the “hERG current change (%, negative = inhibition) at 1uM” value is reported as 8.88%.

In the case of `COC(=O)c1ccc2c(=O)n(CCCCCC(=O)NCc3ccccc3)c(=O)[nH]c2c1`, the “hERG current change (%, negative = inhibition) at 1uM” value is given as -7.36%.

Turning to `NS(=O)(=O)c1ccc(N/N=C/c2ccccc2Br)cc1`, the “hERG current change (%, negative = inhibition) at 1uM” value turned out to be 15%.

On to `Cc1cc(C)n2c(SCC(=O)Nc3ncc(C(F)(F)F)cc3Cl)nnc2n1`, for which the “hERG current change (%, negative = inhibition) at 1uM” value was -2.23%.

Take `O=C1CC(C(=O)O)(c2ccccc2)c2cccc(F)c21` (stereo not shown): the “hERG current change (%, negative = inhibition) at 1uM” value stood at 11%.

`CCc1cc(C(=O)NC2CCCN(Cc3ccccc3F)C2)n(C)n1` (stereo not shown): the “hERG current change (%, negative = inhibition) at 1uM” value turned out to be 8.32%.

With `Nc1nc(-c2ccc3ccccc3c2)cs1`, the “hERG current change (%, negative = inhibition) at 1uM” value was found to be 11.8%.

In the case of `N=c1c(S(=O)(=O)c2ccc(Cl)cc2)cc2c(=O)n3ccccc3nc2n1Cc1cccnc1`, the “hERG current change (%, negative = inhibition) at 1uM” value was determined as 7.26%.

`O=C(CN1C(=O)c2ccccc2C1=O)NN1C(=O)c2ccccc2C1=O`: the “hERG current change (%, negative = inhibition) at 1uM” value came to 4.36%.

For the compound `CCCCn1c(-c2ccco2)nc2ccccc2c1=O`, the “hERG current change (%, negative = inhibition) at 1uM” value is 12.4%.

`O=C(Nc1ccc(Cl)c(Cl)c1)OCc1cccnc1`: the “hERG current change (%, negative = inhibition) at 1uM” value is 25.1%.

On to `NC12NC(=O)C3(O)C4C5CC(C6C5C3C61)C42` (stereo not shown), for which the “hERG current change (%, negative = inhibition) at 1uM” value is 8.74%.

On to `CC(c1ccccc1)N1CC(C(=O)N2CCN(c3ccc(F)cc3)CC2)CC1=O` (stereo not shown), for which the “hERG current change (%, negative = inhibition) at 1uM” value is listed as -20%.

Regarding `Cc1ccc(S(=O)(=O)n2nc(C)cc2C)cc1`, the “hERG current change (%, negative = inhibition) at 1uM” value is 7.26%.

In the case of `COc1cc(C)ccc1OCc1cc(C(=O)NCc2ccncc2)no1`, the “hERG current change (%, negative = inhibition) at 1uM” value turned out to be 12.2%.

For the compound `COc1ccc2cc(Br)ccc2c1CC(=O)NCC1CCCO1` (stereo not shown), the “hERG current change (%, negative = inhibition) at 1uM” value was 15.4%.

Take `COc1ccccc1N1CCN(Cc2ccco2)CC1.O=C(O)C(=O)O`: the “hERG current change (%, negative = inhibition) at 1uM” value was found to be 1.33%.

In the case of `Cc1ccc(S(=O)(=O)N/N=C/c2ccc(OCC(=O)Nc3ccccc3Cl)cc2)cc1`, the “hERG current change (%, negative = inhibition) at 1uM” value stood at 3.12%.

Turning to `COc1ccc(N2C(=O)/C(=C/c3ccc(OC)c(OC)c3)C(=O)NC2=S)cc1`, the “hERG current change (%, negative = inhibition) at 1uM” value came to 14.9%.

Turning to `Cc1ccc2[nH]c3c(c2c1)CN(C(=O)CN1CCN(c2ccccn2)CC1)CC3`, the “hERG current change (%, negative = inhibition) at 1uM” value is reported as -3.52%.

On to `COc1ccc(C(=O)N2CCCCC2)cc1S(=O)(=O)Nc1cccc(C(=O)O)c1`, for which the “hERG current change (%, negative = inhibition) at 1uM” value was 10.7%.

Take `Cc1ccc(SCC(=O)Nc2ccc(N3CCN(c4ccccc4)CC3)c(F)c2)cc1`: the “hERG current change (%, negative = inhibition) at 1uM” value is on record as 8.76%.

On to `CCc1ccc(C(=O)c2cnc3ccc(OC)cc3c2N2CCN(CC)CC2)cc1`, for which the “hERG current change (%, negative = inhibition) at 1uM” value is on record as -46.6%.

As for `Cc1cccc(C(=O)N2CCc3ccccc3C2)c1[N+](=O)[O-]`, the “hERG current change (%, negative = inhibition) at 1uM” value is reported as 12.4%.
